# Assay results reported in the supplement of paper PMC11417369.
# The other results are listed elsewhere or left out.
# System: PfHDP1 homeodomain (GST-tagged)
# Assay: gcPBM binding intensity (ln(normalized median fluorescence intensity)); higher = stronger DNA binding
# Summary of the method: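 After 1 h on an Agilent 4 × 180k array of primer-extended double-stranded 36-bp intergenic genomic probes and negative controls, bound GST-tagged P. falciparum DNA-binding domains were detected with Alexa488 anti-GST antibody and scanned at 488 nm. The domains had been expressed in E. coli, and binding took place in 1× PBS with 1% milk, 0.2 mg/ml BSA, 0.5% salmon testes DNA and 0.03% Triton X-100. Binding intensity is the highest Masliner-normalised natural-log median intensity across replicate spots of either probe orientation.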
row,Sequence,gcPBM binding intensity (ln)
1,TACAAAAGCTATAACATTCACCACATTATAAAAATA [CACACA_negctrl_site1112],6.35
2,TTTAAAAAAAAAAATACACACATAAAAGTTTTCAAA [CACACA_site6471],6.27
3,TTACAAATATTATAATGTACCCATTTTTTTTGCCTT [XGTACX_site6612],6.39
4,TTTTCATTAAGATACTTATAATAGTTTATTAGTAAA [CACACA_negctrl_site586],6.04
5,TGATTAAATCAAGAAAGTACAAAATGAAATATATAA [XGTACX_site4319],6.72
6,ATATATTTTATACATACACACATATATATATTTTTT [CACACA_site3940],6.83
7,AAAATAATTTTATAGTTGCACTATATCGTATACAAT,8.15
8,TAAAGTGTAAAATTCACACACATATAAATAAATATA [CACACA_site6765],6.45
9,ATATATATTTATATATGTACATATTTTTGTGTATTT [XGTACX_site1183],6.48
10,ATATATATATATATATGTACATAATAATTTTATAAA [XGTACX_site5105],9.25
11,AATAATAATAGAAACACACACACATTTTTAATAATA [CACACA_site1217],6.82
12,CTACTTAATATTTGTACACACATATTTAACCTACTA [CACACA_site5725],7.02
13,TTAATTATGTTTTGGTGTACAATAAATTGAATAGAT [XGTACX_site3306],6.68
14,CAAAAATTACCCTTGTGTACACATATATTATATGTA [XGTACX_site1124],7.52
15,ATAAAAAAATCAGACACACACACGTAAACACATACA [CACACA_site5529],6.96
16,ATATCATCTTCTCTATCATTTTTTTTTTTTTTTTTT [CACACA_negctrl_site1220],6.5
17,TGAGATAAATGTGGTAGTACATTTTTTTTATATATA [XGTACX_site1918],6.39
18,TCCATTGTCACCTTTTGTACTTAAATTTTTTCCTCC [XGTACX_site1573],7.07
19,CTTTTTTTTTTTTTTTGTCCGTATGAGGGACCTATA [XGTACX_site8839],5.88
20,AAAAAAAATTCCAGTACACACAATAATACTAAAAAT [CACACA_site2801],6.53
21,AAAAATTACAAAAATGCATGTACTATTCATATTTTT [TGCATGCA_site918],6.48
22,TAATATTATATTATATGTACATAACAAATTATATTT [XGTACX_site4296],6.85

row,Sequence,gcPBM binding intensity (ln)
1,ATGAAAAAATTTAAATGTACATTACATATATTTATT [XGTACX_site2524],6.29
2,ATTATATTAATATATATATATATATATATAATAATA [CACACA_negctrl_site437],6.67
3,TTTTTTTCTCTTTTTATTACAAAAAGGGTTTATATA [TGCATGCA_negctrl_site75],6.14
4,AATAATAAAAAATACACACACATATAAATATATTAC [CACACA_site7597],6.64
5,CATATAAAGATATGAACACACAAAAAGAATATTTCC [CACACA_site6811],6.44
6,TTCCGAACGACCTAAAGTACATGTATTTCAACTTTT [XGTACX_site1220],6.35
7,AGGACACATATATGCAAAAAAAAAAAAAAAAAAAAA [TGCATGCA_negctrl_site427],7
8,TTTTATAAAAAAACTATAAAAATATATAGTACTTAA [CACACA_negctrl_site440],6.21
9,TATGCACACAATATATGTACTTATATATTTTAAAAA [XGTACX_site5482],9.96
10,TAGTGTATGATAATATGTACATACATTTATATAATA [XGTACX_site6330],6.52
11,CATAATATGTGGACTTTACACACTTGTTTTAAAATT [CACACA_site819],6.26
12,ATGCATATAATTATATGTACATATAAGAAATATATA [XGTACX_site517],6.71
13,CATTTATTATGATAAAGTACTTAAATTAATAGATAA [XGTACX_site3566],6.3
14,ATAAAAAACAGTGGCACACATTATGTATCCACCTTT [CACACA_site5958],5.92
15,TTTATTTATTACTAAAGTACTAAATCATATAATTAT [XGTACX_site3654],5.85
16,GTTTAAAGTTGAACAAGTACACATTTATATAAGGCA [XGTACX_site351],6.43
17,TTTTGAAAGTTTTTGTGTCCACATATATTTATATAT [XGTACX_site6563],6.5
18,TGAGATAACAAAAGTTGTACTTTTTTTTTTTTTTTT [XGTACX_site3004],6.44
19,TTTAATAAAAAAATTAAAAATAAAGAAAAAAAAAAA [CACACA_negctrl_site1464],6.3
20,AAATATATATAAAACTCACACATTATCTTATAACCA [CACACA_site5268],6.4
21,GCATATGTTCAGCGTTGTACATAAAAAAAAACATAT [XGTACX_site5974],6.97
22,TTAAATAAATATAAGTGTACATACACACTTTACAAT [XGTACX_site6348],6.35

row,Sequence,gcPBM binding intensity (ln)
1,GCGTAATCTATTTGCACACTTATTTGTTCTTAAAAA [CACACA_site672],10
2,AAAAAATAATATTGTACACACATAAATTCTTTGTCA [CACACA_site5187],6.35
3,ATGTATGGAAATTTTACACACAAGAGTAGTTTAAAA [CACACA_site1710],6.22
4,TATGTGTATACAATATGTACATATGTTAACTTGTAT [XGTACX_site872],6.8
5,AAATTTATTTCTGTGTGTCCACAAAAAAAAATCTTT [XGTACX_site691],5.81
6,CTTATATTAAAACACACACACGCACAAAACAGAAAT [CACACA_site1462],7.35
7,TAAGCCTTTCTATTATGTACTTATTAAAACATGTAG [XGTACX_site8022],6.37
8,TTTTTTTTTTTCAATAGTACTTTCCATTTACATATA [XGTACX_site3889],6.32
9,AAATTTAAAATAAGTAGTACATAATATAAATAAATA [XGTACX_site3592],6.59
10,TATAAAAGAAACTATACACACATATTTTAAATATTT [CACACA_site2753],6.26
11,GTACTTGTATTATGCACACATATAATTAAACATATA [CACACA_site3312],10.1
12,ATTATAAACCAGAATGCATGTAGATGAATCTTTTCT [TGCATGCA_site284],6.35
13,TAAAAATATAAAACATGTACATATATGCATATATTT [XGTACX_site8093],6.69
14,ATATCATAAGTAGAAACACACAATTAGATTTTTTCC [CACACA_site2353],6.08
15,TTTTATAAATACACACGTACGTGTGCATAACGTTTT [XGTACX_site3199],9.18
16,AAAAAAAATAATATTGTACACACATAAATTCTTTGT [CACACA_site8654],6.18
17,TACTTTTTAAAAATGTTTTATATAATAAAAAGATAT [CACACA_negctrl_site678],6.57
18,TGAGAGTTCTCATATGCACACAAAAAACTTTCATTT [CACACA_site7898],9.83
19,TTGCAACTCTTCAATCGTACACATTATTTATTATAT [XGTACX_site1377],6.89
20,TACATATACATATACACACACACACCCAAATAAATA [CACACA_site1344],7.17
21,AATAATAACACCGTGGATACACAATAACAAAGAACT [CACACA_negctrl_site532],7.15
22,AAATATTTTTTTTCTACACACATACAAATATATATT [CACACA_site5325],7.01

row,Sequence,gcPBM binding intensity (ln)
1,TTTCATTTAGCTTTTACACACTATATATCATTGATT [CACACA_site6158],7.02
2,AATTAAATTAGAAGCACACACATATTTATATTTATA [CACACA_site7552],6.39
3,ATACACTCACTCACACGTACAGACAACGGACGATCA [XGTACX_site1097],6.98
4,GTATATATTTAAACACGTACACAAAACCCAAAAAAT [XGTACX_site8110],7.33
5,GAAAAAAAAAAAAAAAAAAAAAGGAAAAAAGTGAAA [CACACA_negctrl_site996],5.88
6,GAATAAATAGACGAGTGTACTTTTTTTTAAAAAAAA [XGTACX_site7880],6.39
7,ACGTTTACGTTATTATGTACGTAATATATCATACCT [XGTACX_site5006],6.11
8,ATAAAACAATAAAATTGTACATAAATTGATTATACT [XGTACX_site6723],6.23
9,AATCTAATATAATGCACACATAAAAAAAAAATCAAA [CACACA_site2714],10.2
10,TATATTTACAATAAAACGTTATTTTTTGTTATTTTC [CACACA_negctrl_site612],6.44
11,TATATACATATATGTACACACATTACAGATGTACAT [CACACA_site966],7.13
12,TTATTATAATCATTAGTGCATATATTATTTTTATAT,8.36
13,AAAAATATAAACTGCACACACACAAAAAAAGAAAAA [CACACA_site648],7.53
14,AAATAAAAAAGTAGTACACACTTCACGATATTTTTT [CACACA_site6015],6.19
15,CATATTTTTAAATACACACACATAAAAAAAAAAAAA [CACACA_site1095],6.55
16,TTTTTTTTAAAAAACACACACCTAAACAAGATATTT [CACACA_site6541],6.74
17,TTACGTTATATACATACACACCCACGCACAAAAAAA [CACACA_site6537],7.63
18,TACAGATATTATTGCACACATATAAAATACCCCCAA [CACACA_site6014],10.4
19,ATTAAATACTTCGATTGTACAATTTTTTTTTTTTTT [XGTACX_site832],6.47
20,TAAGAATAATGACATAGTACAATTTAATAGATCTAA [XGTACX_site3670],6.01
21,TTTTCAAAATAATATTATATCAAATGCTAAAAAGAA [TGCATGCA_negctrl_site588],6.78
22,AAGTTTATTTGTTGCACACATATAAGTAGAGAAAAT [CACACA_site3027],10.2
